Hit rate of the full screen: of about 310,000 compounds, about 14,000 (4.5%) showed an effect of 50% or more. The effect is printed as a negative number. The list shows a part of the results.
Target: human ether-à-go-go-related gene (hERG) potassium channel (human, UniProt Q12809)
Assay: primary screen, population patch clamp on CHO cells stably expressing hERG
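Also: peak tail current of the secondary pulse compared with the same well before compound.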

human ether-à-go-go-related gene (hERG) potassium channel, sequence (Q12809 whole entry, looked up): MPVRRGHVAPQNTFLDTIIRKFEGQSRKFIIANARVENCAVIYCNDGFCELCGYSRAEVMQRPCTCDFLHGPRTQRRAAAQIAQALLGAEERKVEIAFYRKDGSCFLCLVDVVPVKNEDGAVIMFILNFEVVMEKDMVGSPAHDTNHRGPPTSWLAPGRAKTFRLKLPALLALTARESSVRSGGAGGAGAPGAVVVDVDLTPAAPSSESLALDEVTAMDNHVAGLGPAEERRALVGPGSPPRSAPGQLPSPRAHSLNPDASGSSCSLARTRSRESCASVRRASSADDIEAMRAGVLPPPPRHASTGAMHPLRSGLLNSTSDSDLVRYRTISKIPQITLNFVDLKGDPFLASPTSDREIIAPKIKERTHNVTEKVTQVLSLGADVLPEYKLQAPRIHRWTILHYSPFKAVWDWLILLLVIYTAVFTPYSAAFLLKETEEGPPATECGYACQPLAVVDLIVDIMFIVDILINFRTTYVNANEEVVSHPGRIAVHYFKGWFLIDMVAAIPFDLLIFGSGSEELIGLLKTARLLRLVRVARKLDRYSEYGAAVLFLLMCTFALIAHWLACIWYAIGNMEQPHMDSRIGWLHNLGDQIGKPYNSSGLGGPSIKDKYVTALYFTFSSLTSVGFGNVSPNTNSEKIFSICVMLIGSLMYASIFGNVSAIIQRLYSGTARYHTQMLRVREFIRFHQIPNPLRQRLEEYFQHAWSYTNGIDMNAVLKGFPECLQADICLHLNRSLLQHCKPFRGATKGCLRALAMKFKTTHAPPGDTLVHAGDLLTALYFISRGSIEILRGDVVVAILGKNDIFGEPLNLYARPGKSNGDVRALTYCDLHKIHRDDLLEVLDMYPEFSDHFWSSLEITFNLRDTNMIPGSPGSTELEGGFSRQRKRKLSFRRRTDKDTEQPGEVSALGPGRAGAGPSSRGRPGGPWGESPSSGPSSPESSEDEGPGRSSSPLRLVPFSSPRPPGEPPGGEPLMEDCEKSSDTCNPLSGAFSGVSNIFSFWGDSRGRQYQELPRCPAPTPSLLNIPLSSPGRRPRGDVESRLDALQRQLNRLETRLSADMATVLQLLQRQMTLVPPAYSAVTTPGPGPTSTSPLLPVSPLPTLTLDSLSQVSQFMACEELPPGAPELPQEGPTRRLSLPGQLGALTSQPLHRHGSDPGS

| Structure (SMILES) | hERG current change (%, negative = inhibition) at 10uM |
| --- | --- |
| CC(CCc1ccc(O)cc1)NC(c1ccccc1)c1ccc(Cl)cc1 (stereo not drawn) | -14.3% |
| COc1ccc2c(CCNC(=O)c3ccco3)c[nH]c2c1 | -1.53% |
| COc1ccc(N(C(=O)CNC(=O)c2ccco2)C(C(=O)NCC2CCCO2)c2ccccc2)cc1OC (stereo not drawn) | 5.07% |
| CNC(=O)NC(=S)NC(=O)c1ccc(OC)cc1 | 2.01% |
| CCC1Oc2ccccc2N(CC(=O)N2CCOCC2)C1=O (stereo not drawn) | 11% |
| CCCN1C[C@H](CSC)C[C@@H]2c3cccc4[nH]cc(c34)C[C@H]21.CS(=O)(=O)O | -35.3% |
| CCn1c(SCC(N)=O)nnc1-c1ccco1 | 3.15% |
| CCCCCn1c(SCc2ccncc2)nc2cc(C(=O)NCc3ccco3)ccc2c1=O | -22% |
| Cc1nc(-c2ccc(S(=O)(=O)NCc3ccccn3)s2)cs1 | 4.5% |
| O=C(O)c1cc([N+](=O)[O-])ccc1NCc1ccccn1 | 12.7% |
| CC1(C(=O)O)CCC(C(=O)Nc2ccc(OC(F)(F)Cl)cc2)C1(C)C (stereo not drawn) | 20.9% |
| O=C(CSc1nnc(-c2ccccc2Br)o1)N1CCOCC1 | 13.1% |
| CC(=O)Nc1ccc(OCC(O)Cn2c3ccccc3c3ccccc32)c(C)c1 (stereo not drawn) | 15.5% |
| COc1ccc(-c2nc3ccccc3c(C(=O)Nc3ccc(S(=O)(=O)Nc4cc(C)on4)cc3)c2C)cc1 | -7.09% |
| CC(=O)NC(=S)Nc1ccc(S(=O)(=O)Nc2nc(C)cc(C)n2)cc1 | 39.5% |
| CCCc1nc2ccccc2c(=O)n1-c1ccccc1OC | 0.584% |
| Cc1ccccc1N1C(S)=C(C#N)C(=O)NC1c1ccco1 (stereo not drawn) | 0.877% |
| CCOc1ccc(S(=O)(=O)N2CCC(C(=O)NCC3CCCO3)CC2)cc1Cl (stereo not drawn) | -9.19% |
| CSc1ccccc1OCc1cc(C(=O)N2CCN(Cc3nccn3C)CC2)no1 | -44.3% |
| CN1C(=O)NC(=O)/C(=C\c2ccc([N+](=O)[O-])o2)C1=O | 15.3% |
| O=S(=O)(Nc1ccc(OC(F)F)cc1)c1ccc(-c2ccon2)s1 | -15.3% |
| CCc1ccc(CN(C)C(=O)C2CCC(=O)N(Cc3ccccn3)C2)cc1 (stereo not drawn) | -1.48% |

| Structure (SMILES) | hERG current change (%, negative = inhibition) at 10uM |
| --- | --- |
| CC1(C)CC2CC(C)(CN2C(=O)COC(=O)c2cncc(Br)c2)C1 (stereo not drawn) | -13.6% |
| CCCCC(CC)C(=O)Nc1ccccc1C#N (stereo not drawn) | -4.83% |
| O=C(N1CCN(Cc2ccc3c(c2)OCO3)CC1)C(Cl)(Cl)Cl | -0.14% |
| CC(=O)Oc1ccc(C(=O)Nc2ccc3c(c2)C(=O)N(CCC(=O)O)C3=O)cc1 | 11.8% |
| O=C(CSc1ncnc2scc(-c3ccccc3)c12)NC1CCS(=O)(=O)C1 (stereo not drawn) | -4.53% |
| N#Cc1c(NCCCO)nc(-c2ccccc2)c2c1CCCC2 | -6.44% |
| CCc1ccc(NC(=O)C2CCN(S(=O)(=O)c3c(C)[nH]c(=O)[nH]c3=O)CC2)cc1 | -1.88% |
| O=C(COc1ccc(Cl)cc1)OCC(=O)N1CCCC1 | 9.51% |
| COC(=O)C1=C(c2ccc(C(C)=O)cc2)C[C@@H]2CC[C@H]1N2C(=O)N1CCC(C)CC1 | -24.2% |
| COc1ccc(-c2nn(Cc3ccccc3)cc2C(=O)N2CCN(c3ccccn3)CC2)cc1OC | -42.3% |
| CCn1cc2c(c1-c1cccc(C)c1)c(=O)n(C)c(=O)n2C | 6.03% |
| c1ccc(-n2ncc(-c3nn[nH]n3)n2)cc1 | 13.3% |
| NC(=O)C1CCCN(Cc2ccc3ccccc3c2)C1 (stereo not drawn) | 4.89% |
| CSc1ccccc1C(=O)Nc1cccc(C(C)=O)c1 | 1.31% |
| Cl.O=C(NC12CC3CC(CC(C3)C1)C2)OCCNC1CCCCC1 | 17.9% |
| Cc1cccc(OCc2nnc(SCc3cc(=O)n4cc(Br)ccc4n3)o2)c1 | -41.5% |
| COc1ccc(/C=C/C(=O)c2ccc[nH]2)cc1OC | -0.0299% |
| CCCCCCSc1nnc2[nH]c(=O)cc(N)n12 | 6.09% |
| Cc1cc(C)c2cc(CN(Cc3ccc4c(c3)OCO4)Cc3nnnn3Cc3ccco3)c(=O)[nH]c2c1 | -6.62% |
| CN(CC1CCCO1)S(=O)(=O)c1ccc(C(=O)N2CCN(c3ccccc3)CC2)cc1 (stereo not drawn) | -8.9% |
| CCN(c1ccccc1)S(=O)(=O)c1cccc(C(=O)NCC2(N(C)C)CCCCC2)c1 | -60.5% |
| O=C(CSc1nc2nc(-c3cccs3)cc(C(F)(F)F)c2c(=O)[nH]1)Nc1ccc(F)c(F)c1 | -19.8% |

| Structure (SMILES) | hERG current change (%, negative = inhibition) at 10uM |
| --- | --- |
| COc1cccc(C(C(=O)NC2CCCC2)N(CC2CCCO2)C(=O)Cc2cccs2)c1 (stereo not drawn) | 10.7% |
| Cc1cc2oc(=O)c(CC(=O)O)c(C)c2c2occ(C(C)(C)C)c12 | 13.4% |
| Cc1ccc(C(NC(=O)N2CCOCC2)=C(Cl)Cl)cc1F | -14% |
| NS(=O)(=O)c1ccc(CCNc2nc(CN3CCCCC3)nc3sc4c(c23)CCC4)cc1 | -72.9% |
| CN(C)c1ccc(-c2ccc3c(=O)c4ccccc4n(C)c3c2)cn1 | -8.37% |
| Cc1c2cnn(-c3ccccc3)c(=O)c2c(C)n1CCCC(=O)N1CCN(C)CC1 | -18.1% |
| CCC1(c2ccc(F)cc2)NC(=O)N(CC(=O)N2CCOCC2)C1=O (stereo not drawn) | 2.31% |
| CCN(CC)CCNC(=O)CS(=O)Cc1nc(-c2ccccc2Cl)oc1C (stereo not drawn) | -11% |
| O=C(NCC1CCCN(C2Cc3ccccc3C2)C1)c1cccs1 (stereo not drawn) | -40.7% |
| O=C(c1cccc(S(=O)(=O)N2CCN(c3ccccc3)CC2)c1)N1CCN(c2ccccc2O)CC1 | -8.86% |
| O=C(Nc1cccc([N+](=O)[O-])c1)Nc1cccc([N+](=O)[O-])c1 | 13.1% |
| CCc1ccc(NC(=O)NNC(=O)c2ccc3ccccc3c2O)cc1 | 15.9% |
| O=C(Nc1cc(Cl)ccc1N1CCOCC1)C1=COCCO1 | -5.55% |
| COc1ccc(-n2c(=O)c(CCC(=O)N(C)Cc3cccs3)nc3ccccc32)cc1 | -38.7% |
| COc1cc(NC(=O)c2cc(-n3cnnc3)ccc2Cl)cc(OC)c1 | -3.44% |
| CCc1ccc(NC(=O)CSc2nc(=O)n(CCCN3CCOCC3)c3c2CCCC3)cc1 | -54.7% |
| O=C(CCCSc1nnc(SCCCC(=O)c2ccc(F)cc2)s1)c1ccc(F)cc1 | 17.8% |
| O=C(NCc1ccccc1)C1=C[C@H](c2csc3ccccc23)C[C@H](OCCCCO)O1 | -12.5% |
| CC1(C)OC(=O)N(Cc2ccco2)C1(C)O (stereo not drawn) | 14.4% |
| Cc1cccc(C(=O)OCC(=O)N2CCCCCC2)c1 | 7.77% |
| COCCNC(=O)c1ccc2c(c1)S(=O)(=O)c1ccccc1C2=O | 0.495% |
| N#C/C(=C\c1c(Cl)cccc1Cl)c1nc2ccccc2[nH]1 | 9.08% |

| Structure (SMILES) | hERG current change (%, negative = inhibition) at 10uM |
| --- | --- |
| O=S(=O)(c1cccc(-c2csc(-c3ccccc3)n2)c1)N1CCOCC1 | -33.6% |
| O=C(NC1(c2ccccc2)CC1)C1CCC(=O)N(Cc2ccc(Cl)cc2)C1 (stereo not drawn) | -24.1% |
| O=C(Nc1ccccc1Cc1ccccc1)c1ccccc1F | -4.48% |
| CCCc1c(O)nc(SCC(=O)O)[nH]c1=O | 67.7% |
| O=C1CCCCC1S(=O)(=O)c1ccccc1 (stereo not drawn) | -6.31% |
| CCOC(=O)c1nn(-c2ccc(OC)cc2)c(=O)c2c(N)scc12 | 0.386% |
| Cc1ccc2nc(=O)c(NNc3ccccc3)cnc2c1 | 15.6% |
| Cc1ccccc1CN(C)C(=O)c1ccc2ccccc2n1 | 0.112% |
| Cc1ccc(S(=O)(=O)N2CCN(S(=O)(=O)N3CCCCC3)CC2)c(C)c1 | -6.97% |
| Cc1cc(NC(=O)CSCC(=O)Nc2cc(Cl)ccc2N2CCN(C)CC2)no1 | -25.7% |
| CCOC(=O)N1CCN(C(=O)CSCc2ccccc2)CC1 | 16.6% |
| COc1ccc(/C=C/C(=O)NCCCN2CCCCCC2)cc1 | -58.3% |
| N#C/C(=C\c1ccc(N2CCCCC2)c([N+](=O)[O-])c1)c1nn(-c2ccccc2)c(N)c1C#N | 12.1% |
| Cc1ccc(Nc2[nH]c(=O)c3ccccc3c2C(=O)c2ccccc2)cc1 | 13% |
| O=S(=O)(c1ccc(Cl)c(C(F)(F)F)c1)N1CCN(c2ccccn2)CC1 | -5.59% |
| CCN(CC)S(=O)(=O)c1ccc(NC(=O)c2ccc(NS(C)(=O)=O)cc2)cc1 | 0.441% |
| COc1ccc(C(=O)Nc2nc3cc4c(cc3s2)OCO4)c(OC)c1 | 6.04% |
| CCN(CC)c1ccc(-c2c(C#N)c(N)nc(OC)c2C#N)cc1 | 0.548% |
| CSc1cccc(NC(=O)COC(=O)C2CCN(S(=O)(=O)c3ccccc3)CC2)c1 | 4.09% |
| CCCC(=O)Nc1c2c(nn1-c1ccc(C)cc1)CS(=O)(=O)C2 | 3.46% |
| Cc1cc(N2CCOCC2)nc2ccc(NC(=O)C3CCC(C)CC3)cc12 (stereo not drawn) | -27.8% |

Source: paper PMC4336329 (PLoS ONE, 2015)
